Assay results reported in PubChem BioAssay (NCATS).
The shares of active, inactive and inconclusive entries below differ from those in the screen. For some of these results: No potency is given beside an inconclusive call; the fits are too rough. The source made the active and inactive calls. Unless noted, calls come from the whole dose curve; as a rule, active = well fitted curve in the direction sought with a large enough effect; inconclusive = small, poorly fitted or top-dose-only effect, or another doubt; inactive = no such curve, though single readings can be large; an effect the other way counts as inactive or inconclusive.

Assays:
[1] = test system: Zika virus NS2B-NS3 protease (linked construct); assay: Primary screen NINDS Rhodamine qHTS for Zika virus inhibitors (AID 1347160); conditions: activity change, negative = inhibition: at 57.1 µM (top of the series) unless noted; note: nearly all actives have a fitted effect of over 55% in size; for activity change, negative = inhibition: % is set by controls: 0 for no effect and ±100 for the full control effect
How it was run: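 Percent inhibition, normalized to uninhibited and enzyme-free controls, is fitted to a 4-parameter Hill equation. Fluorescence change comes from a 15-min cleavage of 1.5 microM bis-peptide Rhodamine110 substrate by 25 nM linked NS2B-NS3 at room temperature.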

[2] = Primary redox qHTS assay for identification of artifact compounds. (AID 1845223); conditions: Amplex Red/HRP redox cycling with DTT, fluorescence; redox activity (% of DA3003): at 53.8 µM (top of the series); note: potency is the fitted concentration of half-maximal effect
How it was run: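 Amplex Red (25 uM) and HRP (250 mU/mL) in HBSS, with compounds for 15 min, then 250 uM DTT for 30 min, room temperature, dark. Fluorescence 525/598 nm read; normalized to DMSO and 10 uM DA3003; Hill fit.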

[3] = Primary fluorescence-based thiol-reactive (MSTI) qHTS assay for identification of artifact compounds. (AID 1845221); note: potency is the fitted concentration of half-maximal effect;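 note: thiol-reactive compounds lower the probe fluorescence signal; nearly all actives have a fitted effect of over 65% in size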
How it was run: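 Reactivity toward the thiol probe MSTI (4 uM) is scored by fluorescence at Ex/Em 525/598 nm after 1 h at room temperature. Acetyl-MSTI and MSTI define the activity scale.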

[4] = qHTS to identify inhibitors of the type 1 interferon - major histocompatibility complex class I in skeletal muscle: primary screen against the NCATS Mechanism Interrogation Plate v5.0 (MIPE) Libary (AID 1347411); conditions: iHSKM cells + IFN-b, HiBiT-tagged MHC-I luminescence, 24 h; activity change, negative = inhibition: at 45.8 µM (top of the series); note: potency is the fitted concentration of half-maximal effect; nearly all actives have a fitted effect of over 65% in size
How it was run: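 Luminescence from HiBiT-tagged endogenous HLA-B*08:01 served as the MHC class I read-out. CRISPR-engineered C25cl48 human myoblasts received 4.0 ng/ml IFN-beta plus compound for 24 hrs, with an 11-point, 1:3 series topping at 46 uM final.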

[5] = target: Cytochrome P450 2D6 (Homo sapiens) (UniProt P10635); assay: Cytochrome P450 family 2 subfamily D member 6 (CYP2D6) small molecule antagonists: luciferase biochemical (cell-free) qHTS assay (AID 1645840; active = well fitted curve in the direction sought with a large enough effect in the repeat runs; inconclusive = weak or mixed curves; inactive = no such curve, though single readings can be large; an effect the other way counts as inactive or inconclusive; note: potency is the fitted concentration of half-maximal effect; nearly all actives have a fitted effect of over 55% in size)
How it was run: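 P450-Glo luminescent screen: recombinant CYP2D6 enzyme–proluciferin substrate mix preincubated with compound 10 min at room temperature, then NADPH regeneration added for 1 h at room temperature. Detection reagent added for 20 min; luciferin light read as relative luminescence units.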

[6] = qHTS assay to identify inhibitors of the type 1 interferon - major histocompatibility complex class I in skeletal muscle: Counter screen cell viability and HiBit confirmation (AID 1347412); conditions: iHSKM muscle cells + IFN-b, HiBiT or CellTiter-Glo, 24 h; note: nearly all actives have a fitted effect of over 60% in size; note: potency is the fitted concentration of half-maximal effect; for activity change, negative = inhibition: % is set by controls: 0 for no effect and ±100 for the full control effect
How it was run: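 HLA-B*08:01–HiBiT knock-in immortalized human myoblasts (C25cl48) stimulated with 4.0 ng/ml human IFN-beta and dosed with compound in a 12-point 1:3 titration (top final 46 uM). After 24 hrs at 37 C, HiBiT lytic luminescence or CellTiter Glo ATP read out.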

[7] = qHTS of pediatric cancer cell lines to identify multiple opportunities for drug repurposing: Primary screen for DAOY cells (AID 1347090); conditions: DAOY medulloblastoma viability, CellTiter-Glo luminescence, 48 h; activity change, negative = cytotoxic: at 46 µM (top of the series); note: potency is the fitted concentration of half-maximal effect; nearly all actives have a fitted effect of over 55% in size
How it was run: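 Eight- or eleven-point concentration series, 48 h treatment at 37 degrees C in growth media; readout CellTiter-Glo luminescence. Potency and efficacy were taken from the concentration-response curves.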

[8] = qHTS of pediatric cancer cell lines to identify multiple opportunities for drug repurposing: Primary screen for BT-37 cells (AID 1347094); note: potency is the fitted concentration of half-maximal effect
How it was run: (§1)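 500-1,000 cells/well; 5 h pre-incubation 37 °C/5% CO2; compound pinned; 48 h; CellTiter-Glo, 15 min RT; luminescence. MIPE 11-pt from 0.78 nM, NPC 8-pt from 0.59 nM final. Bortezomib 2.3 µM final as positive control.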

[9] = qHTS of pediatric cancer cell lines to identify multiple opportunities for drug repurposing: Primary screen for BT-12 cells (AID 1347101); note: potency is the fitted concentration of half-maximal effect; nearly all actives have a fitted effect of over 25% in size
How it was run: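 Cells (500-1,000/well) rested 5 h, then received compounds for 48 h; metabolically active cells were measured by CellTiter-Glo luminescence. Final concentrations spanned up to 46 µM (MIPE, 11-point) or 0.59 nM-46 µM (NPC, 8-point) in primary screens, 11-point in follow-ups.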

[10] = qHTS of pediatric cancer cell lines to identify multiple opportunities for drug repurposing: Primary screen for RD cells (AID 1347104); conditions: RD rhabdomyosarcoma viability, CellTiter-Glo luminescence, 48 h; activity change, negative = cytotoxic: at 46 µM (top of the series); note: nearly all actives have a fitted effect of over 55% in size; note: potency is the fitted concentration of half-maximal effect;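 for activity change, negative = cytotoxic: plate controls were DMSO for no effect and bortezomib for full effect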
How it was run: as §1

[11] = qHTS of pediatric cancer cell lines to identify multiple opportunities for drug repurposing: Primary screen for Rh41 cells (AID 1347108); note: potency is the fitted concentration of half-maximal effect; nearly all actives have a fitted effect of over 70% in size
How it was run: as §1

UISO = assay: qHTS assay to identify novel small-molecules to repurpose for Merkel cell carcinoma treatment (AID 1296009); conditions: MCC and control cell lines, CellTiter-Glo viability, 72 h; activity change, negative = cytotoxicity: at 46 µM (top of the series); note: potency is the fitted concentration of half-maximal effect; nearly all actives have a fitted effect of over 60% in size
How it was run: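 qHTS format: cells treated with library compounds in DMSO across 8 (NPC) or 11 (MIPE) concentrations. Readout after 72 hr at 37 degree celsius was CellTiter-Glo luminescence.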

[12] = Quantitative High-Throughput drug screen in 47 multiple myeloma cell lines against the NCATS MIPE library collection: Karpas417_ECACC cell viability assay (AID 1918961); conditions: Karpas417 myeloma viability, CellTiter-Glo ATP luminescence, 48 h; viability (% of DMSO): at 45.8 µM (top of the series); note: potency is the fitted concentration of half-maximal effect
How it was run: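 Approved and investigational drugs from MIPE 4.0 were added by pin tool to 500 cells per well. After 48 hours at 37C, ATP-based CellTiter-Glo luminescence indicated remaining viability.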

[13] = Quantitative High-Throughput drug screen in 47 multiple myeloma cell lines against the NCATS MIPE library collection: JIM1_ECACC cell viability assay (AID 1918964; note: potency is the fitted concentration of half-maximal effect)
How it was run: (§2)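 CellTiter-Glo luminescence (ATP) after 48 h compound exposure, 37C/5% CO2; 500 cells/well; MIPE 4.0 approved/investigational drugs pinned in; DMSO = 100%, media only = 0% viability.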

[14] = Quantitative High-Throughput drug screen in 47 multiple myeloma cell lines against the NCATS MIPE library collection: KMS21BM_JCRB cell viability assay (AID 1918974); conditions: ATP luminescence, 48 h; viability: at 45.8 µM (top of the series); note: potency is the fitted concentration of half-maximal effect
How it was run: as §2

[15] = Quantitative High-Throughput drug screen in 47 multiple myeloma cell lines against the NCATS MIPE library collection: LP1_DSMZ cell viability assay (AID 1918982); note: potency is the fitted concentration of half-maximal effect; nearly all actives have a fitted effect of over 35% in size
How it was run: (§3)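 MIPE 4.0 approved/investigational drugs; 500 cells/well; 48 h 37 °C humidified 5% CO2; CTG luminescence readout; DMSO = 100%, media = 0% viability.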

[16] = Quantitative High-Throughput drug screen in 47 multiple myeloma cell lines against the NCATS MIPE library collection: L363_DSMZ cell viability assay (AID 1918984); conditions: L363 myeloma viability, CellTiter-Glo ATP luminescence, 48 h; viability (% of control): at 45.8 µM (top of the series); note: potency is the fitted concentration of half-maximal effect; nearly all actives have a fitted effect of over 40% in size
How it was run: as §3

[17] = qHTS for identification of novel therapeutic agents for treatment of microphthalmiaassociated transcription factor (MiT) renal cell carcinoma (RCC) (AID 1963991; calls by dose curve; note: potency is the fitted concentration of half-maximal effect); conditions: TFE3-RCC UOK109 viability, CellTiter-Glo, 48 h; active = Z-AUC below -0.8 in all three lines
How it was run: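 Viability of three TFE3-fusion renal carcinoma lines measured by CellTiter-Glo after 48 h treatment with each of 1912 compounds at 11 concentrations. Responses scaled between DMSO (100%) and empty wells (0%) before curve fitting.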

[18] = qHTS of pediatric cancer cell lines to identify multiple opportunities for drug repurposing: Primary screen for NB1643 cells (AID 1347099); note: nearly all actives have a fitted effect of over 50% in size; note: potency is the fitted concentration of half-maximal effect;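 for activity change, negative = cytotoxic: plate controls were DMSO neutral control for no effect and bortezomib positive control for full effect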
How it was run: as §1

[19] = qHTS of pediatric cancer cell lines to identify multiple opportunities for drug repurposing: Primary screen for Rh18 cells (AID 1347102); note: potency is the fitted concentration of half-maximal effect; nearly all actives have a fitted effect of over 65% in size
How it was run: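 Cells (500-1,000/well) in growth media were settled 5 h at 37 degrees C, then given compounds for 48 h. Viability was read as CellTiter-Glo luminescence. Primary runs used MIPE at 11 points (0.78 nM-46 µM) and NPC at 8 points (0.59 nM-46 µM); follow-ups used 11 points.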
Tags give direction and shape of the fitted curve.

Chain of UniProt P10635 (P10635 whole entry, looked up): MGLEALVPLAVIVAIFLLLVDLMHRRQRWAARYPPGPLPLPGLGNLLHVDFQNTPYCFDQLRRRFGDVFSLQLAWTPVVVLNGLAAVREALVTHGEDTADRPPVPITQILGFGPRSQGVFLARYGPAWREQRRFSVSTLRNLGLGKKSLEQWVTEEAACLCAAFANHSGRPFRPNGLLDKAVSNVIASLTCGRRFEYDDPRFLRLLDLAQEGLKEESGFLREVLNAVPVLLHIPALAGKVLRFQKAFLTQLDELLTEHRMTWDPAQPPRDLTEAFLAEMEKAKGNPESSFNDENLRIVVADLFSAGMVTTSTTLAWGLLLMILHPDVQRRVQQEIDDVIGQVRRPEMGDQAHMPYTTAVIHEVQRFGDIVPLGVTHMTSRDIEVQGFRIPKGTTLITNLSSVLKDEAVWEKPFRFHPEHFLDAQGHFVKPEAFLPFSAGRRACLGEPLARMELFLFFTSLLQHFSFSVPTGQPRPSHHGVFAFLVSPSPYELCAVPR

With `CCN(CCCOc1ccc2c(Nc3cc(CC(=O)Nc4cccc(F)c4)[nH]n3)ncnc2c1)CCOP(=O)(O)O` the Potency [1] was “inactive” and the Potency [2] was inconclusive [activator, partial curve, poor fit].
In the case of `COc1ccc(CC2C(=O)NC(C)C(=O)N(C)C3Cc4ccc(cc4)Oc4cc(ccc4OC4OC(CO)C(O)C(O)C4O)CC(C(=O)NC(C)C(=O)NC(C)C(=O)N2C)N(C)C3=O)cc1` (centres undefined), the Potency [3] is reported as inconclusive [inhibitor, partial curve, poor fit] and the Potency [2] is reported as inconclusive [activator, partial curve].
In the case of `C=CC(=O)Nc1ccc2ncnc(Nc3cccc(Br)c3)c2c1`, the Potency [4] is reported as active: 11.7 µM, the Potency [5] is reported as inconclusive [inhibitor, full curve] and the Potency ([6]; HiBiT) is reported as inconclusive [inhibitor, partial curve]. For the same compound, the activity change, negative = inhibition ([6]; Viability, at 45.9 µM (top of the series)) was inactive: -0.162%.
For `O=c1[nH]c(=O)n([C@H]2C[C@H](O)[C@@H](CO)O2)cc1F`, the Potency [7] was inconclusive [cytotoxic, full curve, poor fit], the Potency [8] was inconclusive [cytotoxic, full curve] and the Potency [9] was inconclusive [cytotoxic, full curve]. For the same compound, the Potency [10] was inconclusive [cytotoxic, single point], the Potency [11] was inconclusive [cytotoxic, partial curve] and the Potency (UISO) was inconclusive [inhibitor, full curve].
In the case of `CC(C)c1cc(-c2n[nH]c(=O)n2-c2ccc3c(ccn3C)c2)c(O)cc1O`, the Potency [7] is reported as inconclusive [cytotoxic, full curve], the Potency [8] is reported as active: 122 nM and the Potency [9] is reported as inconclusive [cytotoxic, full curve]. The Potency [10] was active: 0.059 µM, the Potency [11] was inconclusive [cytotoxic, full curve] and the Potency [5] was inconclusive [inhibitor, single point]. The Potency [12] was active: 16.6 nM, the Potency [13] was active: 14.8 nM and the Potency [14] was inconclusive [rising, partial curve, poor fit]. The Potency [15] was inconclusive [cytotoxic, full curve], the Potency [16] was active: 11.8 nM and the Potency [17] was active: 74.3 nM. For the same compound, the Potency ([6]; HiBiT) was active: 0.0176 µM and the Potency ([6]; Viability) was inconclusive [cytotoxic, full curve].
With `Cc1cc(-c2nc3cc(F)ccc3s2)ccc1NC(=O)[C@@H](N)CCCCN` the Potency [4] was inconclusive [inhibitor, full curve, poor fit], the Potency [2] was inconclusive [activator, partial curve, poor fit] and the Potency ([6]; HiBiT) was inconclusive [inhibitor, single point]. For the same compound, the Potency ([6]; Viability) was active: 22.2 µM.
With `Oc1ccc(Cl)cc1Cc1cc(Cl)ccc1O` the Potency [7] was active: 21.1 µM, the Potency [18] was active: 9.44 µM and the Potency [9] was active: 27.6 µM. For the same compound, the Potency [19] was inconclusive [cytotoxic, partial curve, poor fit] and the Potency [11] was inconclusive [cytotoxic, single point].
In the case of `COC(=O)C1=C(C)NC(C)=C(C(=O)O[C@@H]2CCCN(Cc3ccccc3)C2)[C@@H]1c1cccc([N+](=O)[O-])c1`, the Potency [8] is reported as inconclusive [cytotoxic, partial curve], the Potency [18] is reported as “inactive” and the Potency [9] is reported as inconclusive [cytotoxic, single point]. For the same compound, the Potency [19] was inconclusive [cytotoxic, partial curve, poor fit], the Potency [10] was “inactive” and the Potency [11] was inconclusive [cytotoxic, single point]. The Potency [5] was active: 6.92 µM, the Potency [3] was “inactive” and the Potency (UISO) was inconclusive [inhibitor, single point].
For `CC1OC2OC3C(OCC(O)C3O)OC(=O)C34CCC(C)(C)CC3C3=CCC5C6(C)CC(O)C(OC7OC(CO)C(O)C(O)C7OC7OCC(OC(=O)CC(C)(O)CC(=O)OC1C(OC1OCC(O)C(O)C1O)C2O)C(O)C7O)C(C)(CO)C6CCC5(C)C3(C)CC4O` (centres undefined), the Potency [2] was inconclusive [activator, full curve, poor fit].
With `COC(=O)CC1OC(C)C2=C(O)c3c(O)cccc3C(=O)C23OC13` (centres undefined) the Potency [3] was active: 3.29 µM.
For `COc1ccccc1S(=O)(=O)Nc1ccc2c(c1)CN(C)C(=O)N2`, the Potency [1] was “inactive”.
